# According to PMC6212790:
# Some of the results follow. At the low end of the ranking the order means little.
# Biological target: T1, GST-Rok-C97-191 (UniProt O34857)
# T1 sequence: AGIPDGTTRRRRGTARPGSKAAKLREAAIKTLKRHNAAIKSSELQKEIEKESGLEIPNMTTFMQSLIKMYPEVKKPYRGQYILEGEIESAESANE
# Assay: protein binding microarray;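 also: rank score from −0.5 (least bound) to 0.5 (best bound)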
# Details: Rok is a gene silencer of Bacillus subtilis; high values mean tight binding; most listed sequences are background and not binding sites; double strand, one strand shown
row,Sequence,binding signal [E-score]
1,AATGAATT,0.251
2,CGGCACAG,-0.13
3,CGAACCCG,-0.112
4,CTAAGAGA,-0.0124
5,AATCTGAC,-0.0891
6,CCTATCAC,8.72e-05
7,AGTCAGCG,-0.0245
8,AACAGAAG,0.0489
9,CCCTGTTC,-0.306
10,AATGAGCT,-0.18
11,GCCTAGGA,-0.106
12,GCCGAGCA,-0.191
13,CCCATTCC,-0.0523
14,CAGAGCAG,-0.21
15,GCAGAAGC,-0.209
16,AAGCCCGA,-0.0721
17,CATGTACC,0.227
18,AACGTGGC,-0.0901
19,GCCGCACC,-0.283
20,AGGGCGCC,-0.19
21,GTAGCGAC,0.111
22,TCTTGCAA,0.083
23,CGTAGACC,-0.165
24,AACACCAG,0.034
25,TAAACGGA,0.00328

row,Sequence,binding signal [E-score]
1,CAACACCG,-0.114
2,AGTCTGCC,-0.283
3,GCTCAAAA,-0.0164
4,AAACGAAT,0.112
5,AGGGCGAG,-0.216
6,AGACTGAT,-0.044
7,CAAGGACA,-0.144
8,CGAGCCGC,-0.316
9,AACATAAA,-0.0782
10,GCCCCACC,-0.231
11,AACATGAT,0.134
12,CAGGAGGA,-0.208
13,ACCTTCGA,-0.0758
14,AGACTTCG,-0.246
15,GGTAACAA,0.0618
16,ATATTCTG,0.237
17,TCCGAGAA,0.0252
18,CCATCTCG,-0.00555
19,GCGCGTTA,-0.0591
20,CTGCCCGC,-0.0908
21,CTGGAGTA,-0.086
22,GGCGTGCA,-0.127
23,CGTCCGAC,-0.15
24,GTTGGACA,-0.19
25,AGATATTA,0.356

row,Sequence,binding signal [E-score]
1,AATGTTCC,0.00825
2,ATCAGGGG,-0.0773
3,AGCGCACA,-0.0886
4,GATACTGC,0.0173
5,AACCACGA,-0.00899
6,CTTCGAGA,-0.0153
7,CTACCAAG,-0.0332
8,AGGAGGTC,-0.283
9,ACCTGTTA,0.00671
10,ATTTTCTG,-0.0553
11,AGGCCATG,-0.274
12,ATGAGTCC,-0.158
13,GACCCTAC,-0.133
14,GTCATATA,0.127
15,ATTCGGGC,-0.048
16,ATTCAGAC,-0.229
17,GCACAGCC,-0.177
18,CTTTTCGA,0.0799
19,CTTCATAC,0.0668
20,GGGGCTTA,-0.195
21,CATCGGAG,-0.0956
22,CTTTGTGA,-0.0126
23,ATGAAACA,0.155
24,ACTATTCT,0.217
25,ATCTTCAA,0.18

row,Sequence,binding signal [E-score]
1,CGACAACC,-0.054
2,CGGCTACG,-0.0747
3,CTCAATTC,-0.0794
4,TCAATCCA,0.0652
5,GACCCGAA,-0.174
6,GTCCTAAA,-0.0241
7,AAGGCAAG,-0.265
8,AAGTTAAG,-0.104
9,AACCTATT,0.276
10,AATCATTA,0.164
11,ATTGTCCG,-0.0512
12,ACGCTGTA,0.0711
13,AAGGCAGG,-0.151
14,ATATACTG,0.365
15,CAGTTCTC,-0.0141
16,GGCAAATA,0.171
17,CGTGCGAG,-0.0807
18,ATAACCGA,0.02
19,CGTTCGTA,0.0383
20,ATCCATTA,0.0903
21,CTAAGCGA,-0.171
22,GATCTCCA,-0.0449
23,TCAAGGGA,0.102
24,AATCACTG,-0.0295
25,CGTGATCC,-0.0857

row,Sequence,binding signal [E-score]
1,CCATCGTC,-0.109
2,ATAGGACG,0.00789
3,CTGGAATC,-0.0329
4,AACTCACG,0.12
5,AGCCCCTC,-0.272
6,GAGGGGAC,-0.243
7,AGCTCAAT,0.00857
8,AATCCGGG,-0.14
9,TCTCTGCA,-0.104
10,GACATGGA,-0.0277
11,GGGCGGAA,-0.213
12,TTTGCAAA,0.141
13,CCGGTCCC,-0.243
14,TGCATCAA,0.0866
15,GCTCCTAC,-0.156
16,CCTGTTGA,0.0932
17,CGCGGCAA,0.0901
18,GCATGAAA,-0.0052
19,TAAGACAA,-0.0918
20,TACTAGAA,0.348
21,GGAGCCAC,-0.209
22,AATCCCTA,0.0763
23,ACAGGCCT,-0.287
24,CCGATAGA,0.198
25,CCAGTTGA,-0.091

row,Sequence,binding signal [E-score]
1,CTAGATAG,0.324
2,CAACCGAC,-0.206
3,AACAGCCA,-0.134
4,ATTGAACC,-0.0128
5,GGCTACCC,-0.247
6,CCAGCGCC,-0.356
7,CTGTTAGC,0.176
8,TATGTGCA,0.0361
9,ACTCGTGA,-0.0468
10,ACAGCCCC,-0.247
11,ACAATACC,0.0831
12,AGCTGATG,-0.00908
13,GGTTAAAC,0.102
14,AGACTCCA,-0.176
15,AGTCTAAA,0.0248
16,AGGGTAAC,-0.119
17,CAATCTGC,0.0189
18,TCTGGTAA,0.245
19,ATGCTCAA,-0.0151
20,AGAGACAA,-0.0936
21,CAGATAAA,0.112
22,TACTAGCA,0.256
23,ATTTCCGA,0.00267
24,AGTCTCAT,-0.16
25,AGCGGATG,-0.0347

row,Sequence,binding signal [E-score]
1,AAAAGTTG,0.104
2,TGGCGCAA,-0.11
3,ATTGAACG,0.102
4,AGGGATTG,-0.0819
5,AGTTACCC,0.243
6,AGTGTCGG,0.0975
7,ATAATATC,0.209
8,CAGGTCGC,-0.118
9,ACCATGTA,0.282
10,GATTTTGA,0.00182
11,GCCGACGA,-0.261
12,AGCACAGC,-0.089
13,AATATTGT,0.372
14,GGGTACCA,-0.134
15,CCTTCTAG,0.0722
16,AAGACATT,-0.0608
17,CGTGTAAA,0.00822
18,CGATTAGC,0.097
19,CAGCCCTA,-0.133
20,AAGGTCAT,-0.0255
21,ATGCGCAC,-0.0981
22,CAGAAAAC,0.0277
